This note sets out measurements from the supplement of paper PMC10369915.

The list shows a part of the results. No stated cut-off is given here; in the data, active = 3.2 or more and inactive = the rest. Only a few entries rise above the background.

B1: ACK1_HUMAN_518 (peptide)
chain: GGVKKPTYDPVSEDQ
B2: DYR1A_HUMAN_145 (peptide)
chain: DGYDDDNYDYIVKNG
B3: EHD4_HUMAN_451_YA (peptide)
chain: VAKDKPVYDELFATL
B4: EGFR_HUMAN_764 (peptide)
chain: KEILDEAYVMASVDN
B5: EIF3J_HUMAN_254_YA (peptide)
chain: DGGAVQDYEDFMGGG
B6: DPP10_HUMAN_138_YA (peptide)
chain: SVSPDLKYVLLAADV
B7: DPP10_HUMAN_138 (peptide)
chain: SVSPDLKYVLLAYDV
B8: DVL2_HUMAN_275 (peptide)
chain: VTLNMEKYNFLGISI
B9: ACK1_HUMAN_859 (peptide)
chain: KKVSSTHYYLLPERP
B10: DYN1_HUMAN_125 (peptide)
chain: VPINLRVYSPHVLNL
B11: DPYL1_HUMAN_32_YA (peptide)
chain: INDDQSLYADVALED
B12: DYR1B_HUMAN_129 (peptide)
chain: FGQVVKAYDHQTQEL
B13: EIF3J_HUMAN_254 (peptide)
chain: DGGYVQDYEDFMGGG
B14: DPYL1_HUMAN_431 (peptide)
chain: SHKSAVEYNIFEGME
B15: DYR1A_HUMAN_159 (peptide)
chain: GEKWMDRYEIDSLIG
B16: DVL2_HUMAN_295 (peptide)
chain: ERGDGGIYIGSIMKG
B17: DYRK2_HUMAN_382_YA (peptide)
chain: EHQRVATYIQSRFAR
B18: ECE2_HUMAN_39 (peptide)
chain: GAADSAPYDWFGDFS
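Further: displayed peptides selected on beads carrying the immobilized SH2 domain, with library peptides lacking any tyrosine serving as negative controls.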

The first test addresses SHP2 C-SH2 domain E139D. Kind of test: enrichment score (SH2-bound / input frequency) (ratio); bacterial display of known human phosphotyrosine sites (pTyr-Var adds point mutants) read by sequencing; higher = stronger binding; tyrosines were phosphorylated by kinases first. As to conditions: peptide library: Human pTyr.
As to B1, the enrichment score is inactive: 1.08.

Regarding B2, the enrichment score is inactive: 1.16.

In the case of B3, the enrichment score was inactive: 0.911.

Take B4: the enrichment score was inactive: 0.764.

As to B5, the enrichment score was inactive: 0.693.

Turning to B6, the enrichment score was inactive: 0.999.

Turning to B7, the enrichment score is inactive: 1.59.

On to B8, for which the enrichment score is inactive: 2.16.

As to B9, the enrichment score was inactive: 1.59.

For B10, the enrichment score is inactive: 0.631.

As for B11, the enrichment score was inactive: 1.29.

Turning to B12, the enrichment score was inactive: 0.777.

As for B13, the enrichment score is inactive: 0.787.

For the molecule B14, the enrichment score was inactive: 1.14.

Consider B15, for which the enrichment score was inactive: 0.721.

As for B16, the enrichment score is inactive: 1.01.

For the molecule B17, the enrichment score is inactive: 2.23.

For B18, the enrichment score is inactive: 0.538.

Another test deals with SHP2 C-SH2 domain wild-type. The test is described as above. As to conditions: peptide library: Human pTyr.
Take B1: the enrichment score is inactive: 1.06.

B2: the enrichment score is inactive: 0.976.

As for B3, the enrichment score was inactive: 0.925.

Turning to B4, the enrichment score is inactive: 0.736.

On to B5, for which the enrichment score is inactive: 0.708.

Take B6: the enrichment score was inactive: 1.11.

Consider B7, for which the enrichment score was inactive: 1.86.

With B8, the enrichment score was inactive: 2.12.

On to B9, for which the enrichment score is inactive: 1.87.

Consider B10, for which the enrichment score was inactive: 0.584.

As for B11, the enrichment score is inactive: 0.987.

For B12, the enrichment score is inactive: 0.57.

B13: the enrichment score is inactive: 0.702.

For B14, the enrichment score is inactive: 1.12.

For the molecule B15, the enrichment score was inactive: 0.598.

Regarding B16, the enrichment score was inactive: 0.727.

Consider B17, for which the enrichment score is inactive: 2.12.

Take B18: the enrichment score is inactive: 0.461.

Another test addresses SHP2 N-SH2 domain L43F. Described as above. As to conditions: peptide library: Human pTyr.
For B1, the enrichment score is inactive: 0.932.

In the case of B2, the enrichment score was inactive: 1.25.

With B3, the enrichment score is inactive: 0.863.

Take B4: the enrichment score was inactive: 0.918.

Take B5: the enrichment score was inactive: 0.642.

B6: the enrichment score was inactive: 2.78.

Regarding B7, the enrichment score is active: 7.81.

B8: the enrichment score was inactive: 1.77.

As for B9, the enrichment score was inactive: 1.83.

Consider B10, for which the enrichment score was inactive: 0.709.

With B11, the enrichment score was inactive: 1.11.

On to B12, for which the enrichment score is inactive: 0.703.

As for B13, the enrichment score is inactive: 0.717.

For the molecule B14, the enrichment score was inactive: 1.07.

For the molecule B15, the enrichment score was inactive: 0.59.

Regarding B16, the enrichment score is inactive: 0.711.

Regarding B17, the enrichment score was inactive: 1.75.

As to B18, the enrichment score is inactive: 0.478.

Another test has as its target SHP2 N-SH2 domain T42A. Described as above. As to conditions: peptide library: Human pTyr.
With B1, the enrichment score was inactive: 1.05.

Turning to B2, the enrichment score was inactive: 1.05.

In the case of B3, the enrichment score was inactive: 0.938.

As for B4, the enrichment score is inactive: 0.786.

Take B5: the enrichment score was inactive: 0.579.

Take B6: the enrichment score is inactive: 2.72.

For the molecule B7, the enrichment score was active: 9.19.

As for B8, the enrichment score is inactive: 2.12.

B9: the enrichment score was inactive: 1.44.

For the molecule B10, the enrichment score is inactive: 0.589.

In the case of B11, the enrichment score is inactive: 1.18.

For B12, the enrichment score was inactive: 0.486.

B13: the enrichment score is inactive: 0.618.

For B14, the enrichment score is inactive: 1.12.

Consider B15, for which the enrichment score was inactive: 0.527.

In the case of B16, the enrichment score is inactive: 0.872.

For the molecule B17, the enrichment score is inactive: 1.86.

B18: the enrichment score is inactive: 0.475.

For a further test, the target named is SHP2 N-SH2 domain T52S. Described as above. As to conditions: peptide library: Human pTyr.
As for B1, the enrichment score was inactive: 1.05.

Turning to B2, the enrichment score is inactive: 1.11.

With B3, the enrichment score is inactive: 1.03.

For the molecule B4, the enrichment score was inactive: 0.808.

As for B5, the enrichment score was inactive: 0.615.

Consider B6, for which the enrichment score was inactive: 2.09.

Consider B7, for which the enrichment score is active: 5.58.

Turning to B8, the enrichment score was inactive: 2.16.

On to B9, for which the enrichment score is inactive: 1.81.

In the case of B10, the enrichment score is inactive: 0.687.

For B11, the enrichment score was inactive: 1.4.

For B12, the enrichment score is inactive: 0.803.

For B13, the enrichment score is inactive: 0.646.

For the molecule B14, the enrichment score was inactive: 0.901.

For B15, the enrichment score is inactive: 0.546.

For the molecule B16, the enrichment score was inactive: 0.898.

Turning to B17, the enrichment score is inactive: 2.65.

In the case of B18, the enrichment score is inactive: 0.572.

The target of the next test is SHP2 N-SH2 domain wild-type. The test is described as above. As to conditions: peptide library: Human pTyr.
Consider B1, for which the enrichment score is inactive: 0.95.

B2: the enrichment score is inactive: 0.909.

For the molecule B3, the enrichment score is inactive: 0.986.

Regarding B4, the enrichment score is inactive: 0.894.

In the case of B5, the enrichment score was inactive: 0.58.

For the molecule B6, the enrichment score is inactive: 0.82.

For the molecule B7, the enrichment score is inactive: 2.08.

As for B8, the enrichment score was inactive: 2.6.

Turning to B9, the enrichment score was inactive: 1.88.

For the molecule B10, the enrichment score is inactive: 0.561.

B11: the enrichment score was inactive: 1.41.

As to B12, the enrichment score was inactive: 0.667.

Take B13: the enrichment score is inactive: 0.776.

Regarding B14, the enrichment score was inactive: 0.943.

B15: the enrichment score was inactive: 0.742.

Take B16: the enrichment score was inactive: 1.1.

As for B17, the enrichment score was inactive: 2.45.

Turning to B18, the enrichment score is inactive: 0.637.
